Literature values in patent EP1813310A2, “Cosmetic stick based on an oil in water dispersion/emulsion” (Henkel Kommanditgesellschaft auf Aktien, priority 2006, dated 2007).
Counter-ions that a name gives are not always drawn. At least one read-out could not be matched to a standard name with certainty.

Settings: Tabelle 1, taken from Cosmetics & Toiletries, Vol. 103, October 1988, Seiten 47 - 69

SMILES | Solubility Parameter
[N-]=[N+]=O [Nitrous Oxide] | 10.00 (cal/cm^3)^0,5
CC(C)=CCCC(C)CCO (stereo not drawn) [Citronellol] | 9.88 (cal/cm^3)^0,5
CCCCCCCC [octane] | 7.58 (cal/cm^3)^0,5
CCCCC(C)=O [Methyl Butyl Ketone] | 9.11 (cal/cm^3)^0,5
CC(C)CCCCCCCCCCCCCCC(=O)OCC(O)CO (stereo not drawn) [Glyceryl Isostearate] | 8.31 (cal/cm^3)^0,5
CCCCCCCCCCCCCCCCCCCCCCCCCCCCC [Nonacosane (D29), Nonacosane] | 6.83 (cal/cm^3)^0,5
CCCCCCCCCCO [Decyl Alcohol (C10), Decyl Alcohol] | 9.78 (cal/cm^3)^0,5
CCCCCCCC(C)=O [Methyl Heptyl Ketone] | 8.86 (cal/cm^3)^0,5
CCCCCCCCCCCCCC(=O)OCC [Ethyl Myristate] | 8.00 (cal/cm^3)^0,5
CCCCCCCCCCCCC [Tridecane (C13), Tridecane] | 7.48 (cal/cm^3)^0,5
CC(C)OC(=O)CCCCC(=O)OC(C)C [Diisopropyl Adipate] | 8.46 (cal/cm^3)^0,5
CN1CCCC1=O [N-Methylpyrrolidone] | 11.71 (cal/cm^3)^0,5
CCCCCCCCCCCCCCCCOC(=O)C(C)O (stereo not drawn) [Cetyl Lactate] | 9.32 (cal/cm^3)^0,5
CCCCCCCC=O [Octanal] | 8.77 (cal/cm^3)^0,5
CCCCCCCCOC(=O)/C=C\C(=O)OCCCCCCCC [Dioctyl Maleate] | 7 75 (cal/cm^3)^0,5
CCCCCC(N)=O [Caproamide (C6), Caproamide] | 11.24 (cal/cm^3)^0,5
CC(C)=CCC[C@](C)(O)[C@@H]1CC=C(C)CC1 [alpha-Bisabolol] | 9.30 (cal/cm^3)^0,5
C[S+](C)[O-] [Dimethyl Sulfoxide] | 13,40 (cal/cm^3)^0,5
CCCCCOC(C)=O [Amyl Acetate] | 8.43 (cal/cm^3)^0,5
NC=O [Formamide] | 17.82 (cal/cm^3)^0,5
CCCC(=O)OCC(COC(=O)CCC)OC(=O)CCC [Tributyrin] | 9.97 (cal/cm^3)^0,5
CCCCCCCCCCCO [Undecyl Alcohol] | 9.51 (cal/cm^3)^0,5
CCCCCCCCCCCCCOC(=O)C(C)(C)C [Tridecyl Neopentanoate] | 7.92 (cal/cm^3)^0,5
CCCCCCCCCCCCCCCCOC(=O)CCCCCCC [Cetyl Octanoate] | 7.59 (cal/cm^3)^0,5

SMILES | Solubility Parameter
CCCC(N)=O [Butyramide] | 12.33 (cal/cm^3)^0,5
CC(=O)OC(C)=O [Acetic Anhydride] | 10,12 (cal/cm^3)^0,5
CCCCCCCCCCCCCCCCCCO [Stearyl Alcohol (C18), Stearyl Alcohol] | 8.90 (cal/cm^3)^0,5
CCCCC(CC)COC(=O)C=Cc1ccc(OC)cc1 (stereo not drawn) [Octyl Methoxycinnamate] | 9.10 (cal/cm^3)^0,5
CCCCCCCC/C=C\CCCCCCCC(=O)OCCCCCCCCCC [Decyl Oleate] | 6.92 (cal/cm^3)^0,5
CCCCCCCCCCCCCCCC [Cetane (016), Cetane] | 7.41 (cal/cm^3)^0,5
CCCCCCCC/C=C\CCCCCCCC(=O)OCC [Ethyl Oleate] | 8.60 (cal/cm^3)^0,5
CCCCCCCCCCCCCCCCCCCCO [Arachidyl Alcohol (C20), Arachidyl Alcohol] | 8.89 (cal/cm^3)^0,5
CCCCC/C=C\C/C=C\CCCCCCCC(=O)OC [Methyl Linoleate] | 8.08 (cal/cm^3)^0,5
CCCC(=O)CCC [Dipropyl Ketone] | 8.89 (cal/cm^3)^0,5
CCCCCC[C@@H](O)C/C=C\CCCCCCCC(=O)O [Ricinoleic Acid] | 8.30 (cal/cm^3)^0,5
CCCCCCCCCCCCCCCCCCCC [Eicosane (020), Eicosane] | 7.32 (cal/cm^3)^0,5
CCCCCCCCCCCCCCCCCCCCCC [Docosane (C22), Docosane] | 6.60 (cal/cm^3)^0,5
C1CCCCC1 [Cyclohexane] | 7.30 (cal/cm^3)^0,5
CCCCCCCC/C=C/CCCCCCCCO [Elaidyl Alcohol] | 8.90 (cal/cm^3)^0,5
CC(C)O [Isopropyl Alcohol] | 11.24 (cal/cm^3)^0,5
CC(C)CCCCCCCCCCCCCCCOC(=O)C(C)(C)C [Isostearyl Neopentanoate] | 7.43 (cal/cm^3)^0,5
N[C@@H](Cc1ccccc1)C(=O)O [Phenylalanine] | 11.57 (cal/cm^3)^0,5
CCCCCCCCCC [Decane] | 7.62 (cal/cm^3)^0,5
CCCCCCCCCCCC=O [Lauraldehyde] | 8.66 (cal/cm^3)^0,5
COC(=O)CC(O)(CC(=O)OC)C(=O)OC [Trimethyl Citrate] | 9.39 (cal/cm^3)^0,5
OCCOCCOCCO [Triethylene Glycol] | 12.21 (cal/cm^3)^0,5
OCCOc1ccccc1 [Phenoxyethanol] | 11.87 (cal/cm^3)^0,5
OC[C@@H](O)[C@@H](O)CO [Erythritol] | 16.06 (cal/cm^3)^0,5

SMILES | Solubility Parameter
CCCCCCCCOC(C)=O [Octyl Acetate] | 8.58 (cal/cm^3)^0,5
CCCCCCCCCCCCCCOC(=O)C(C)O (stereo not drawn) [Myristyl Lactate] | 8.87 (cal/cm^3)^0,5
FC(F)(F)C(F)(F)C(F)(F)C(F)(F)C(F)(F)C(F)(F)F [perfluorohexane] | 5.68 (cal/cm^3)^0,5
COc1ccc(C=O)cc1 [p-Anisaldehyde] | 11.32 (cal/cm^3)^0,5
CCCCCCCCCCCCCCCCCC(=O)OCC(C)C [Isobutyl Stearate] | 7.65 (cal/cm^3)^0,5
CCCCCCCCCCCCCCCCCCCCCCC [Tricosane (C23), Tricosane] | 7.13 (cal/cm^3)^0,5
CCCCCCCCS [Octyl Mercaptan] | 8.35 (cal/cm^3)^0,5
COc1cnc(NS(=O)(=O)c2ccc(N)cc2)nc1 [Sulfameter, reference compound] | 13.90 (cal/cm^3)^0,5
O=C(O)c1ccc(O)cc1 [p-Hydroxybenzoic Acid] | 15.30 (cal/cm^3)^0,5
CCCCCCCCCCCCCC(=O)OCCCC [Butyl Myristate] | 7,68 (cal/cm^3)^0,5
CCCCCCCCCCCCCC(=O)O [Myristic Acid (C14), Myristic Acid] | 8.10 (cal/cm^3)^0,5
OCCc1ccccc1 [Phenethyl Alcohol] | 11,70 (cal/cm^3)^0,5
CC(=O)CC(C)C [Methyl Isobutyl Ketone] | 8.85 (cal/cm^3)^0,5
C[C@H](N)C(=O)O [Alanine] | 12.23 (cal/cm^3)^0,5
S1SSSSSSS1 [Sulfur] | 12.70 (cal/cm^3)^0,5
OCC(O)CO [Glycerin] | 16.26 (cal/cm^3)^0,5
CCCCNCCCC [Dibutylamine] | 8.15 (cal/cm^3)^0,5
COC(=O)c1ccccc1O [Methyl Salicylate] | 10.62 (cal/cm^3)^0,5
CCOC(=O)c1ccc(N)cc1 [Benzocaine, reference compound] | 12.05 (cal/cm^3)^0,5
CCCCCCCC/C=C\CCCCCCCCCCCC(=O)O [Erucic Acid] | 7.57 (cal/cm^3)^0,5
OCC(S)CS (stereo not drawn) [BAL (2,3-Dimercapto-1-propanol), 2,3-Dimercapto-1-propanol, reference compound] | 13,10 (cal/cm^3)^0,5
CCCCCCCCCCCCCCCC(=O)OC(C)C [Isopropyl Palmitate] | 7.78 (cal/cm^3)^0,5
CCN(CC)C(=O)c1cccc(C)c1 [Diethyl Toluamide] | 10.46 (cal/cm^3)^0,5
CCCCCCCCCCCCCCCCCCCCCCCCCCCCCCO [Melissyl Alcohol (C 30), Melissyl Alcohol] | 8.22 (cal/cm^3)^0,5

SMILES | Solubility Parameter
CC1COC(=O)O1 (stereo not drawn) [Propylene Carbonate] | 13.35 (cal/cm^3)^0,5
CCCCCCCC(=O)OCC [Ethyl Caprylate (C8), Ethyl Caprylate] | 8.57 (cal/cm^3)^0,5
CC(N)=O [Acetamide] | 16.03 (cal/cm^3)^0,5
CC(C)OC(C)C [Diisopropyl Ether] | 6.95 (cal/cm^3)^0,5
CC(O)CO (stereo not drawn) [Propylene Glycol] | 14.00 (cal/cm^3)^0,5
CCCCCCCCCCCCCCCCCCCCCCO [Behenyl Alcohol (C22), Behenyl Alcohol] | 8.63 (cal/cm^3)^0,5
CCCCOC(=O)C(C)O (stereo not drawn) [Butyl Lactate] | 10.27 (cal/cm^3)^0,5
CCCCCCCCCCCCCCCC(=O)OCCCCCCCC [Octyl Palmitate] | 7.44 (cal/cm^3)^0,5
CC(C)CCCC(C)CCCC(C)CCCCC(C)CCCC(C)CCCC(C)C (stereo not drawn) [Squalane] | 6.03 (cal/cm^3)^0,5
Nc1ccc(S(=O)(=O)Nc2nccs2)cc1 [Sulfathiazole, reference compound] | 13.10 (cal/cm^3)^0,5
CCCCCCCCCCCC(=O)O [Lauric Acid (C12), Lauric Acid] | 8.46 (cal/cm^3)^0,5
CCC=O [Propionaldehyde] | 9.22 (cal/cm^3)^0,5
CCCC(C)=O [Methyl Propyl Ketone] | 9.27 (cal/cm^3)^0,5
O=C1OC(=Cc2ccccc2)c2ccccc21 [Benzalphthalide] | 10.90 (cal/cm^3)^0,5
CCCCCCC(C)=O [Methyl Hexyl Ketone] | 6.91 (cal/cm^3)^0,5
CCCCOC(=O)CC(O)(CC(=O)OCCCC)C(=O)OCCCC [Tributyl Citrate] | 9.20 (cal/cm^3)^0,5
CC(C)CCC[C@@H](C)[C@H]1CC[C@H]2[C@@H]3CC=C4C[C@@H](O)CC[C@]4(C)[C@H]3CC[C@]12C [Cholesterol] | 9.55 (cal/cm^3)^0,5
OCc1ccccc1 [Benzyl Alcohol] | 12.31 (cal/cm^3)^0,5
CCC(=O)CC [Diethyl Ketone] | 8.85 (cal/cm^3)^0,5
O=C1OCc2ccccc21 [Phthalide] | 11.78 (cal/cm^3)^0,5
CCCCCCCCOC(=O)CC(O)C(=O)OCCCCCCCC (stereo not drawn) [Dioctyl Malate] | 10.21 (cal/cm^3)^0,5
